Results as given in the supplement of paper PMC4967469.

Experiments:
Assay in all cases: Viability of human cancer cell lines after 72 h of drug (GDSC screen)
[1] = compound: C/C=C(/C)C(=O)O[C@H]1C(C)=C2[C@H]([C@@H]1OC(=O)CCCCCCC)[C@@](C)(OC(C)=O)C[C@H](OC(=O)CCC)[C@@]1(O)[C@H]2OC(=O)[C@@]1(C)O [Thapsigargin]; conditions: top dose 0.512 µM; top dose inferred
Procedure: (§1)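 Human cancer cell lines in 384-well plates, medium with 10% serum, drug for 72 h over a 256-fold dose range (nine 2-fold or five 4-fold steps up to the top dose). Adherent lines were fixed and stained with the nucleic acid dye Syto60, suspension lines read with resazurin; signal relative to control wells, capped at 0 and 100%. One two-parameter sigmoid per drug and line, fitted in a mixed model over all curves with the slope shared within a line.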

[2] = compound: C=CC(=O)Nc1cc(-n2c(=O)ccc3cnc4ccc(-c5cn[nH]c5)cc4c32)ccc1C [QL-X-138]; conditions: top dose 10.24 µM; top dose inferred
Procedure: as §1

[3] = compound: CCn1c(-c2nonc2N)nc2cnc(Oc3cccc(NC(=O)c4ccc(OCCN5CCOCC5)cc4)c3)cc21 [GSK269962A]; conditions: top dose inferred
Procedure: as §1

[4] = compound: COc1cc(N2CCC(O)CC2)ccc1Nc1cc(Nc2ccccc2S(=O)(=O)C(C)C)c2cc[nH]c2n1 [MPS-1-IN-1]; conditions: top dose 20 µM; top dose inferred
Procedure: as §1

[5] = compound: COc1cc(O)c2c(c1)/C=C/C[C@H](O)[C@H](O)C(=O)/C=C\C[C@H](C)OC2=O [(5Z)-7-Oxozeaenol]; conditions: top dose 10 µM; top dose inferred
Procedure: as §1

[6] = compound: COc1cc2ncnc(-n3nc(-c4ccccn4)nc3N)c2cc1OC [CP466722]; conditions: top dose 16 µM; top dose inferred
Procedure: as §1

[7] = compound: COc1nc(C)cnc1NS(=O)(=O)c1cccnc1-c1ccc(-c2nnco2)cc1 [Zibotentan]; conditions: top dose 20 µM; top dose inferred
Procedure: as §1

[8] = compound: C[C@]1(c2nc3c(C(N)=O)cccc3[nH]2)CCCN1 [ABT-888]; conditions: top dose 5 µM; top dose inferred
Procedure: as §1

[9] = compound: Cc1ccc(-c2c(C(=O)CCl)n(CCCO)c3ncnc(N)c23)cc1 [CMK]; conditions: top dose 4 µM; top dose inferred
Procedure: as §1

[10] = compound: Cc1ccc(F)c(NC(=O)Nc2ccc(-c3cccc4[nH]nc(N)c34)cc2)c1 [ABT-869]; conditions: top dose 1.024 µM; top dose inferred
Procedure: as §1

[11] = compound: Cc1cnc(-c2cnc(NCCNc3ccc(C#N)cn3)nc2-c2ccc(Cl)cc2Cl)[nH]1 [CHIR-99021]
Procedure: as §1

[12] = compound: Nc1ccn([C@@H]2O[C@H](CO)[C@@H](O)[C@@H]2O)c(=O)n1 [Cytarabine]; conditions: top dose 2 µM
Procedure: as §1

[13] = compound: O=c1cc(-c2cccc3c2Sc2ccccc2S3)oc(N2CCOCC2)c1 [KU-55933]; conditions: top dose 10 µM
Procedure: as §1

[14] = top dose 2.5 µM, screen: GDSC drug entry 127
[15] = top dose 5 µM, screen: GDSC drug entry 1192
[16] = top dose 2.56 µM, screen: GDSC drug entry 154
[17] = top dose 10 µM, screen: GDSC drug entry 1241, top dose inferred

Cell Line | AUC [1] | IC50 [1] | AUC [2] | IC50 [2] | AUC [3, 14] | IC50 [3, 14] | AUC [3, 15] | IC50 [3, 15] | AUC [4] | IC50 [4] | AUC [5] | IC50 [5] | AUC [6] | IC50 [6] | AUC [7] | IC50 [7] | AUC [8] | IC50 [8] | AUC [9] | IC50 [9] | AUC [10] | IC50 [10] | AUC [11, 16] | IC50 [11, 16] | AUC [11, 17] | IC50 [11, 17] | AUC [12] | IC50 [12] | AUC [13] | IC50 [13]
NOS-1 (osteosarcoma, adherent) | 0.143 | < 2 nM | 0.403 | 326 nM | 0.923 | > 2500 nM | 0.947 | > 5000 nM | 0.738 | 7150 nM | 0.67 | 2080 nM | 0.481 | 880 nM | 0.967 | > 20000 nM | 0.978 | > 5000 nM | 0.867 | > 4000 nM | 0.814 | 723 nM | 0.974 | > 2560 nM | 0.941 | > 10000 nM | 0.833 | 1720 nM | 0.945 | > 10000 nM
NU-DUL-1 (B-cell lymphoma, suspension) | 0.359 | 14.2 nM | 0.304 | 204 nM | 0.986 | > 2500 nM | 0.989 | > 5000 nM | 0.88 | 13800 nM | 0.848 | 5320 nM | 0.471 | 847 nM | 0.993 | > 20000 nM | 0.993 | > 5000 nM | 0.873 | 2610 nM | 0.993 | > 1020 nM | 0.993 | > 2560 nM | 0.992 | > 10000 nM | 0.188 | 19.1 nM | 0.888 | 7420 nM
OCI-LY-19 (B-cell lymphoma, suspension) | 0.318 | 10.4 nM | 0.332 | 227 nM | 0.924 | > 2500 nM | 0.959 | > 5000 nM | 0.789 | 8070 nM | 0.705 | 2230 nM | 0.43 | 653 nM | 0.988 | > 20000 nM | 0.985 | > 5000 nM | 0.942 | > 4000 nM | 0.988 | > 1020 nM | 0.977 | > 2560 nM | 0.921 | > 10000 nM | 0.393 | 65.2 nM | 0.976 | > 10000 nM
OCUB-M (breast, adherent) | 0.122 | 2.56 nM | 0.276 | 164 nM | 0.949 | > 2500 nM | 0.735 | 1300 nM | 0.87 | 14500 nM | 0.741 | 2720 nM | 0.705 | 3450 nM | 0.99 | > 20000 nM | 0.99 | > 5000 nM | 0.901 | 3960 nM | 0.989 | > 1020 nM | 0.989 | > 2560 nM | 0.943 | > 10000 nM | 0.99 | > 2000 nM | 0.984 | > 10000 nM
OMC-1 (cervix, adherent) | 0.591 | 57.6 nM | 0.976 | > 10200 nM | 0.988 | > 2500 nM | 0.948 | > 5000 nM | 0.943 | > 20000 nM | 0.761 | 3710 nM | 0.841 | 11900 nM | 0.988 | > 20000 nM | 0.988 | > 5000 nM | 0.968 | > 4000 nM | 0.985 | > 1020 nM | 0.988 | > 2560 nM | 0.986 | > 10000 nM | 0.736 | 610 nM | 0.968 | > 10000 nM
ONS-76 (medulloblastoma, adherent) | 0.243 | 5.42 nM | 0.362 | 258 nM | 0.938 | > 2500 nM | 0.9 | > 5000 nM | 0.973 | > 20000 nM | 0.425 | 385 nM | 0.696 | 3730 nM | 0.973 | > 20000 nM | 0.973 | > 5000 nM | 0.94 | > 4000 nM | 0.978 | > 1020 nM | 0.975 | > 2560 nM | 0.983 | > 10000 nM | 0.643 | 321 nM | 0.984 | > 10000 nM
OPM-2 (myeloma, suspension) | 0.283 | 8.97 nM | 0.83 | 4860 nM | 0.954 | > 2500 nM | 0.977 | > 5000 nM | 0.797 | 7520 nM | 0.886 | 7540 nM | 0.774 | 5160 nM | 0.989 | > 20000 nM | 0.994 | > 5000 nM | 0.952 | > 4000 nM | 0.991 | > 1020 nM | 0.988 | > 2560 nM | 0.993 | > 10000 nM | 0.993 | > 2000 nM | 0.992 | > 10000 nM
OS-RC-2 (kidney, adherent) | 0.442 | 20.7 nM | 0.7 | 3060 nM | 0.96 | > 2500 nM | 0.899 | > 5000 nM | 0.949 | > 20000 nM | 0.77 | 5640 nM | 0.847 | > 16000 nM | 0.976 | > 20000 nM | 0.835 | > 5000 nM | 0.866 | > 4000 nM | 0.975 | > 1020 nM | 0.944 | > 2560 nM | 0.952 | > 10000 nM | 0.743 | 867 nM | 0.971 | > 10000 nM
P30-OHK (lymphoblastic leukaemia, suspension) | 0.122 | 2.75 nM | 0.366 | 293 nM | 0.916 | > 2500 nM | 0.561 | 444 nM | 0.802 | 7980 nM | 0.55 | 837 nM | 0.557 | 1400 nM | 0.99 | > 20000 nM | 0.991 | > 5000 nM | 0.913 | > 4000 nM | 0.99 | > 1020 nM | 0.99 | > 2560 nM | 0.922 | > 10000 nM | 0.36 | 55 nM | 0.915 | > 10000 nM

By IC50 is meant the dose at which the fit gives 50% viability; fits outside the tested doses are given as limits. The AUC spans the tested range (256-fold, ending at the top dose) of the same fit: 1 means no effect, lower means more sensitive. For part of these data: Any top dose called inferred comes from the curve model; the source does not state it. For part of these data: Drugs with an entry number were screened twice under separate entries, and the two screens often disagree.
